# The supplement of paper PMC11417369
# ± gives the standard deviation of the averaged measurements. Some of the results follow.
# Tested on: PfAP2-I AP2 domain 3 (GST-tagged)
# Assay: gcPBM binding intensity (ln(normalized median fluorescence intensity)); higher = stronger DNA binding
# Method in brief: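 Each value is the highest Masliner-normalised natural-log median intensity across replicate spots of either orientation of a probe. The probes were primer-extended double-stranded 36-bp intergenic genomic sequences on an Agilent 4 × 180k array, alongside negative controls, exposed for 1 h to GST-tagged P. falciparum DNA-binding domains expressed in E. coli. Bound protein was picked up with Alexa488 anti-GST antibody and scanned at 488 nm.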
row,Sequence,gcPBM binding intensity (ln)
1,TTTCTTAAAATGTTATGTACATATTTCGTTTCAAAG [XGTACX_site6102],7.8 ± 0.41
2,TCTTTTTAATTTATATGTACTTATATTAATTATAAG [XGTACX_site7524],7.75 ± 0.42
3,ATATATTTCAAAGGGGTGCAGGCATATTTAAGCAAA,8.88 ± 0.13
4,TTAATAAAAGCCCATGCACACCTTAGAAAGTTTTAT [CACACA_site8003],7.93 ± 0.52
5,TGAGCTTCAACAATATGTACATAAAATATATTACAT [XGTACX_site4763],7.67 ± 0.5
6,GTATTATAGTATAATACACACCCAAATATTAAAAAG [CACACA_site7404],8.09 ± 0.49
7,ATTGAATATGGATATGTGCACATATGTATATAAGTA,9.66 ± 0.4
8,AAAACATTGTTGAACTGTTTTATTTATAAATATAAG [XGTACX_negctrl_site393],7.68 ± 0.52
9,ATATATATACTGTGTACACACATATGTATTTATATA [CACACA_site4600],8.58 ± 0.48
10,TGCTTTATTATTTATTGTACATGTAAAATGAGAGAG [XGTACX_site2288],8.5 ± 0.11
11,TTTGTTTAAATTAAATGTACATAAAGAATAATATAT [XGTACX_site5093],8.26 ± 0.36
12,TAATAACTACAAAAAAAAAAGAAAAATAGAAAAAGG [CACACA_negctrl_site1102],7.75 ± 0.67
13,TCGTGTTAAACTTTTACACACAAACTTGCAATAATT [CACACA_site7745],9.18 ± 0.085
14,AATTATATGAAATAAACACACATATGTAATATTACA [CACACA_site1928],7.68 ± 0.49
15,AGAAGGTAAATAATTTACCCATATATATAAATATAT [GTGCAC_negctrl_site631],7.33 ± 0.52
16,TTATTATTTCTTAGTAGTACTATATAATTTTTTTTT [XGTACX_site1847],7.65 ± 0.45
17,ATAGTATCTGGTAGCTGTACGAGTCGTAGAGAGTAG [XGTACX_site2546],8.45 ± 0.39
18,GGAAAATTATCAATAGCATGCAAAATGTGAATATTA [TGCATGCA_site901],7.61 ± 0.7
19,ATATATCTGTATGGCACACACGGATAAATATATATA [CACACA_site4668],8.62 ± 0.26

row,Sequence,gcPBM binding intensity (ln)
1,TGTATTTAGAAACATACACACATATTAAGTTTACAT [CACACA_site5689],7.56 ± 0.68
2,TATATTTGTACATGATATTTTTTTTTTCTTTTAAAA [CACACA_negctrl_site754],7.54 ± 0.53
3,GCCAAAATATAATTTACACACTTATTAAATAATTAT [CACACA_site236],7.84 ± 0.41
4,AGAATAATACAAAAATGTACATTAATAAAAAGATAG [XGTACX_site780],8.21 ± 0.18
5,TTTCCTCATTTTATCATACACACTTATTTATATGTG [CACACA_site900],7.8 ± 0.52
6,CTAATGATCATATATACACACACACTAATAAAAAAA [CACACA_site9329],7.92 ± 0.54
7,TATATTTAGATATATACACACATTAGCATTTTCATA [CACACA_site6902],7.5 ± 0.54
8,AAAGAATTTGCATATACACACAAAAAGATATATACA [CACACA_site6318],7.74 ± 0.49
9,CATAATACAGATAACACACACAATTATACATAAAAT [CACACA_site5742],7.87 ± 0.39
10,AGATTATAAAATTCTACACACATATATACATATATA [CACACA_site3485],7.66 ± 0.54
11,GACCAATTCAAATATGCACACAAATTTGAAAACGAT [CACACA_site9202],8.955 ± 0.064
12,ATATAAAAAAAAAAAAGTACACATAAACAAATGCAT [XGTACX_site4241],8.28 ± 0.28
13,AATATATAGAAACACACACACAAAAAAAAAAAAAAA [CACACA_site1326],8.06 ± 0.46
14,AATAAAAAGACATTCACACATATATATTATTTATAT [CACACA_site5936],7.75 ± 0.42
15,TTTCACTTTTTCCAAAGTACATATATAAAAATTAAT [XGTACX_site6947],7.88 ± 0.19
16,TTTTAATAAATATACACACACAAAAAAAAAAAAAAA [CACACA_site3971],8.07 ± 0.79
17,ATATGTAGAAGTAATGCACACATATGTATATATATA [CACACA_site8796],10.8 ± 0.48
18,TTAAAATATAATATTCGTACTTATTCAAAAGAAAAA [XGTACX_site2122],7.49 ± 0.37
19,ATAATGTAAAAGTAAACACACACATATATATATACA [CACACA_site8793],7.72 ± 0.62

row,Sequence,gcPBM binding intensity (ln)
1,GTCTTAAAAATTAAAACACACGTTCACTTTCATATT [CACACA_site5803],8.08 ± 0.62
2,TATATATATATATAATGTACATATATATAATATACA [XGTACX_site1552],9.21 ± 0.29
3,ATTTCTACTAAAAATACACACGATGATACAACGAAG [CACACA_site1755],7.79 ± 0.69
4,AATTAATAACAAAATAAACACACATATATAAATACA [CACACA_site8456],7.76 ± 0.53
5,AAAAAAACATAACAAAATGAAACAAAACAAAAAGAA [GTGCAC_negctrl_site577],7.75 ± 0.67
6,AGTTATTAAAAATGTGCATGCAATGGTTTCTCTTAA [TGCATGCA_site634],8.54 ± 0.24
7,AAAAAAAAAAAAAAAGCACACATCATATTATAATTC [CACACA_site3355],8.96 ± 0.52
8,AGGAGGTCAGTTCACAGTACCCAGAAACTCTACGAG [XGTACX_site2006],7.5 ± 0.39
9,TCTTTTTTTTCTTTTTTTTTATTTAAATATCAAGTA [CACACA_negctrl_site1354],7.59 ± 0.34
10,ATTTATAATGATTTTTTTAGTAATCTTGTTATTTTT [XGTACX_negctrl_site373],7.38 ± 0.54
11,GTATGTATATATATATGTACATACTGTTTATCGTTA [XGTACX_site6168],7.63 ± 0.27
12,TTATATGGCTCCATTTGTACGCATCCATGTTTTTAT [XGTACX_site6590],8.19 ± 0.72
13,GTATATATTTTTATTTAATAATTTGTTTATTTATTC [CACACA_negctrl_site647],7.64 ± 0.45
14,CATACATATACATACAGTACATATTTTTTGTCAATT [XGTACX_site7357],7.82 ± 0.39
15,AACGAAAACACTACGTGTACCAAACGTCCTACTAAC [XGTACX_site4915],7.94 ± 0.45
16,CGTTAAAGGGAATGTATACACACGTTTCTCTATGTT [CACACA_site1198],7.71 ± 0.68
17,GTATATATGTATATATGTACATATATACATTTTGTT [XGTACX_site7320],8.34 ± 0.71
18,TATATATTTAACAATCGTACATATTTACAAATATAA [XGTACX_site2131],7.57 ± 0.26
19,TTATAACAACTGGAATGATTAACAATAAATATTAAA [CACACA_negctrl_site1723],7.62 ± 0.45
